The other results are listed elsewhere or left out.
Tests used:
Test in all cases: glycan array binding signal (z-score within array); higher = stronger binding
Details in all cases: glycan notation: IUPAC condensed, linker removed
[1] = target: Gal(b1-4)GlcNAc(b1-3)Gal(b1-3)GlcNAc
Method in brief: (§1)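 Glycan array data came from 3228 arrays in the Consortium for Functional Glycomics database, and only arrays with an available protein sequence were kept. Glycan names were put into IUPAC-condensed notation, and columns mapping to the same glycan were averaged. The binding signal is a within-array Z-score, averaged across arrays of one protein sequence run at different concentrations or buffers and across linkers. A negative Z-score can be read as non-binding.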

[2] = target: Gal(b1-4)GlcNAc(b1-3)Gal(b1-4)Glc
Method in brief: as §1

[3] = target: Gal(b1-4)GlcNAc(b1-3)Gal(b1-4)GlcNAc
Method in brief: as §1

[4] = target: Gal(b1-4)GlcNAc(b1-3)Gal(b1-4)GlcNAc(b1-2)Man(a1-3)[Gal(b1-4)GlcNAc(b1-3)Gal(b1-4)GlcNAc(b1-2)Man(a1-6)]Man(b1-4)GlcNAc(b1-4)GlcNAc
Method in brief: as §1

[5] = target: Gal(b1-4)GlcNAc(b1-3)Gal(b1-4)GlcNAc(b1-2)Man(a1-3)[Gal(b1-4)GlcNAc(b1-3)Gal(b1-4)GlcNAc(b1-2)Man(a1-6)]Man(b1-4)GlcNAc(b1-4)[Fuc(a1-6)]GlcNAc
Method in brief: as §1

[6] = target: Gal(b1-4)GlcNAc(b1-3)Gal(b1-4)GlcNAc(b1-2)[Gal(b1-4)GlcNAc(b1-3)Gal(b1-4)GlcNAc(b1-6)]Man(a1-6)[Gal(b1-4)GlcNAc(b1-3)Gal(b1-4)GlcNAc(b1-2)Man(a1-3)]Man(b1-4)GlcNAc(b1-4)GlcNAc
Method in brief: as §1

[7] = target: Gal(b1-4)GlcNAc(b1-3)Gal(b1-4)GlcNAc(b1-2)[Gal(b1-4)GlcNAc(b1-3)Gal(b1-4)GlcNAc(b1-6)]Man(a1-6)[Gal(b1-4)GlcNAc(b1-3)Gal(b1-4)GlcNAc(b1-2)Man(a1-3)]Man(b1-4)GlcNAc(b1-4)[Fuc(a1-6)]GlcNAc
Method in brief: as §1

[8] = target: Gal(b1-4)GlcNAc(b1-3)Gal(b1-4)GlcNAc(b1-3)Gal(b1-4)GlcNAc
Method in brief: as §1

[9] = target: Gal(b1-4)GlcNAc(b1-3)Gal(b1-4)GlcNAc(b1-3)Gal(b1-4)GlcNAc(b1-2)Man(a1-3)[Gal(b1-4)GlcNAc(b1-3)Gal(b1-4)GlcNAc(b1-3)Gal(b1-4)GlcNAc(b1-2)Man(a1-6)]Man(b1-4)GlcNAc(b1-4)GlcNAc
Method in brief: as §1

[10] = target: Gal(b1-4)GlcNAc(b1-3)Gal(b1-4)GlcNAc(b1-3)Gal(b1-4)GlcNAc(b1-2)Man(a1-3)[Gal(b1-4)GlcNAc(b1-3)Gal(b1-4)GlcNAc(b1-3)Gal(b1-4)GlcNAc(b1-2)Man(a1-6)]Man(b1-4)GlcNAc(b1-4)[Fuc(a1-6)]GlcNAc
Method in brief: as §1

[11] = target: Gal(b1-4)GlcNAc(b1-3)Gal(b1-4)GlcNAc(b1-3)Gal(b1-4)GlcNAc(b1-2)[Gal(b1-4)GlcNAc(b1-3)Gal(b1-4)GlcNAc(b1-3)Gal(b1-4)GlcNAc(b1-6)]Man(a1-6)[Gal(b1-4)GlcNAc(b1-3)Gal(b1-4)GlcNAc(b1-3)Gal(b1-4)GlcNAc(b1-2)Man(a1-3)]Man(b1-4)GlcNAc(b1-4)[Fuc(a1-6)]GlcNAc
Method in brief: as §1

[12] = target: Gal(b1-4)GlcNAc(b1-3)Gal(b1-4)GlcNAc(b1-3)Gal(b1-4)GlcNAc(b1-3)Gal(b1-4)GlcNAc(b1-2)Man(a1-3)[Gal(b1-4)GlcNAc(b1-3)Gal(b1-4)GlcNAc(b1-3)Gal(b1-4)GlcNAc(b1-3)Gal(b1-4)GlcNAc(b1-2)Man(a1-6)]Man(b1-4)GlcNAc(b1-4)GlcNAc
Method in brief: as §1

[13] = target: Gal(b1-4)GlcNAc(b1-3)Gal(b1-4)GlcNAc(b1-3)Gal(b1-4)GlcNAc(b1-3)Gal(b1-4)GlcNAc(b1-2)Man(a1-3)[Gal(b1-4)GlcNAc(b1-3)Gal(b1-4)GlcNAc(b1-3)Gal(b1-4)GlcNAc(b1-3)Gal(b1-4)GlcNAc(b1-2)Man(a1-6)]Man(b1-4)GlcNAc(b1-4)[Fuc(a1-6)]GlcNAc
Method in brief: as §1

[14] = target: Gal(b1-4)GlcNAc(b1-3)Gal(b1-4)GlcNAc(b1-3)Gal(b1-4)GlcNAc(b1-3)Gal(b1-4)GlcNAc(b1-2)[Gal(b1-4)GlcNAc(b1-3)Gal(b1-4)GlcNAc(b1-3)Gal(b1-4)GlcNAc(b1-3)Gal(b1-4)GlcNAc(b1-6)]Man(a1-6)[Gal(b1-4)GlcNAc(b1-3)Gal(b1-4)GlcNAc(b1-3)Gal(b1-4)GlcNAc(b1-3)Gal(b1-4)GlcNAc(b1-2)Man(a1-3)]Man(b1-4)GlcNAc(b1-4)[Fuc(a1-6)]GlcNAc
Method in brief: as §1

[15] = target: Gal(b1-4)GlcNAc(b1-3)Gal(b1-4)GlcNAc(b1-3)Gal(b1-4)GlcNAc(b1-3)Gal(b1-4)GlcNAc(b1-3)Gal(b1-4)GlcNAc(b1-2)Man(a1-3)[Gal(b1-4)GlcNAc(b1-3)Gal(b1-4)GlcNAc(b1-3)Gal(b1-4)GlcNAc(b1-3)Gal(b1-4)GlcNAc(b1-3)Gal(b1-4)GlcNAc(b1-2)Man(a1-6)]Man(b1-4)GlcNAc(b1-4)GlcNAc
Method in brief: as §1

[16] = target: Gal(b1-4)GlcNAc(b1-3)Gal(b1-4)GlcNAc(b1-3)Gal(b1-4)GlcNAc(b1-3)Gal(b1-4)GlcNAc(b1-3)Gal(b1-4)GlcNAc(b1-2)Man(a1-3)[Gal(b1-4)GlcNAc(b1-3)Gal(b1-4)GlcNAc(b1-3)Gal(b1-4)GlcNAc(b1-3)Gal(b1-4)GlcNAc(b1-3)Gal(b1-4)GlcNAc(b1-2)Man(a1-6)]Man(b1-4)GlcNAc(b1-4)[Fuc(a1-6)]GlcNAc
Method in brief: as §1

[17] = target: Gal(b1-4)GlcNAc(b1-3)Gal(b1-4)GlcNAc(b1-3)Gal(b1-4)GlcNAc(b1-3)Gal(b1-4)GlcNAc(b1-3)Gal(b1-4)GlcNAc(b1-2)[Gal(b1-4)GlcNAc(b1-3)Gal(b1-4)GlcNAc(b1-3)Gal(b1-4)GlcNAc(b1-3)Gal(b1-4)GlcNAc(b1-3)Gal(b1-4)GlcNAc(b1-6)]Man(a1-6)[Gal(b1-4)GlcNAc(b1-3)Gal(b1-4)GlcNAc(b1-3)Gal(b1-4)GlcNAc(b1-3)Gal(b1-4)GlcNAc(b1-3)Gal(b1-4)GlcNAc(b1-2)Man(a1-3)]Man(b1-4)GlcNAc(b1-4)[Fuc(a1-6)]GlcNAc
Method in brief: as §1

[18] = target: Gal(b1-4)GlcNAc(b1-3)Gal(b1-4)GlcNAc(b1-3)Gal(b1-4)GlcNAc(b1-3)Gal(b1-4)GlcNAc(b1-3)Gal(b1-4)GlcNAc(b1-3)Gal(b1-4)GlcNAc(b1-2)Man(a1-3)[Gal(b1-4)GlcNAc(b1-3)Gal(b1-4)GlcNAc(b1-3)Gal(b1-4)GlcNAc(b1-3)Gal(b1-4)GlcNAc(b1-3)Gal(b1-4)GlcNAc(b1-3)Gal(b1-4)GlcNAc(b1-2)Man(a1-6)]Man(b1-4)GlcNAc(b1-4)GlcNAc
Method in brief: as §1

[19] = target: Gal(b1-4)GlcNAc(b1-3)Gal(b1-4)GlcNAc(b1-3)GalNAc
Method in brief: as §1

B1: UEA-I (Ulex europaeus), P22972 (protein)
chain: SDDLSFKFKNFSQNGKDLSFQGDASVIETGVLQLNKVGNNLPDETGGIARYIAPIHIWNCNTGEVASFITSFSFFMETSANPKAATDGLTFFLAPPDSPLRRAGGYFGLFEDTKDNDSSYQTVAVEFDTIGSPVNFDDPGFPHIGIDVNRVKSINAERWNKRYGLNNVANVEIIYEASSKTLTASLTYPSDQTSISVTSIVDLKEILPEWVSVGFSGGTYIGRQATHEVLNWYFTSNLINTNS
glycan array binding signal (z-score) [1]: -0.141
glycan array binding signal (z-score) [2]: -0.149
glycan array binding signal (z-score) [3]: -0.207
glycan array binding signal (z-score) [4]: 0.184
glycan array binding signal (z-score) [5]: -0.011
glycan array binding signal (z-score) [6]: -0.144
glycan array binding signal (z-score) [7]: -0.047
glycan array binding signal (z-score) [8]: -0.19
glycan array binding signal (z-score) [9]: 0.274
glycan array binding signal (z-score) [10]: -0.105
glycan array binding signal (z-score) [11]: -0.002
glycan array binding signal (z-score) [12]: -0.135
glycan array binding signal (z-score) [13]: -0.103
glycan array binding signal (z-score) [14]: -0.13
glycan array binding signal (z-score) [15]: -0.127
glycan array binding signal (z-score) [16]: -0.21
glycan array binding signal (z-score) [17]: -0.084
glycan array binding signal (z-score) [18]: -0.196
glycan array binding signal (z-score) [19]: 0.337

— the supplement of paper PMC8728848
